Sequences with one replicate were seen in a single cluster, so their values are uncertain.
system: ATP; assay: switch fluorescence ratio, 500 uM ATP over buffer (Cy3 cluster intensity, sum of 5 cycles each) (fold (ratio)); higher = stronger signal-on switching upon ATP binding; sequences stand for … in TCGTCGGCAGCGTCAGATGTGTATAAGAGACAGTTTTTTTTTTTTTTTTTTTTTTTTT…TC; settings: aptamer strand: ATP DNA aptamer (quencher-CACCTGGGGGAGTATTGCGGAGGAAGG + anchor), 100 nM annealed; ATP concentration: 500 uM; one replicate
Outline: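 The fluorescence ratio divides summed target-cycle Cy3 intensity by summed buffer-cycle Cy3 intensity for each cluster and is averaged per switch-domain sequence. Cy3-labelled switching-strand clusters on a modified Illumina MiSeq flow-cell were annealed to 100 nM quencher-labelled ATP aptamer, then imaged in selection buffer and again after 15 min with 500 uM ATP at 22 °C. Five such cycles were run, with NaOH stripping and re-annealing between them, and clusters outside 100-1000 RFU were excluded.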
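Further: ATP exposure 15 min at 22 °C before imaging.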

Sequence	switch fluorescence ratio
ACTGCGCTCA	1.64
ACTGCTCTGC	1.01
ACTGCTGCCC	1.04
ACTGGACTCA	1.15
ACTGGAGTCA	1.02
ACTGGCTCCG	1.52
ACTGGGTAAC	0.974
ACTGGGTATA	0.999
ACTGGGTGAT	1.05
ACTGGGTGCA	1.04
ACTGGTATTC	1.03
ACTGTAGATG	1.15
ACTGTCGCGG	1.08
ACTGTCTCGG	1.03
ACTGTGAAGC	0.944
ACTGTGATAA	1.04
ACTGTGGCGG	1.03
ACTGTGTGGA	1.03
ACTTAAGGCT	1.04
ACTTACGTGG	1.25
ACTTAGCAGT	1.28
ACTTAGGCAG	1.03
ACTTAGGTTT	1.07
ACTTATATTG	1.06
ACTTATGGT	1.05
ACTTCCGTGT	1.12

Sequence	switch fluorescence ratio
ACTTCGGGAG	1.05
ACTTCGTTTG	1.08
ACTTCTCGGC	1.15
ACTTGATAA	1.01
ACTTGCTTGA	0.977
ACTTGGAGCT	1.02
ACTTGTGAGT	1.01
ACTTGTGCTC	0.998
ACTTTACGTT	1.23
ACTTTCCACC	1.17
ACTTTCGAGA	1.03
ACTTTCTACT	1.04
ACTTTCTGGT	0.971
ACTTTCTTCG	1.53
ACTTTGCACT	1.23
ACTTTGGATG	0.96
ACTTTGTGGG	0.99
ACTTTTACTG	1.17
ACTTTTAGCG	1.06
ACTTTTCATG	1.02
ACTTTTCCGG	1.05
ACTTTTTCTG	1.02
ACTTTTTCTT	1.01
ACTTTTTGTA	0.999
AGAAAACCGC	1.31
AGAAAATCCA	0.998

Sequence	switch fluorescence ratio
AGAAAGACCT	1.58
AGAAAGAGGC	1.03
AGAAAGGACC	1.05
AGAAAGGTAA	1.03
AGAAAGGTGG	1.01
AGAAATCGAA	1.03
AGAACAATCT	0.98
AGAACACTC	1.03
AGAACAGGCG	1.02
AGAACATTC	1.01
AGAAGAAGC	0.984
AGAAGAGAAA	1
AGAAGAGCAG	0.993
AGAAGCAGAG	1.05
AGAAGGAAGA	0.991
AGAAGGGGCT	1.03
AGAATAACGG	1.07
AGAATCAGCT	0.992
AGAATGGAAG	0.996
AGACAATAAG	1
AGACAGATCA	1.01
AGACAGCCCA	1.1
AGACAGCGTT	1.01
AGACATTATG	1.06
AGACCCAGGA	1.01
AGACCGTAAT	1.31

Sequence	switch fluorescence ratio
AGACCGTGCA	1.03
AGACCGTTAA	1.01
AGACGCTAGA	1.05
AGACGTTTT	0.996
AGACTAAAGC	0.993
AGACTCGCA	1.12
AGACTCGGT	1.05
AGACTCTGCA	1.83
AGACTGTAGT	1.03
AGACTGTCCC	1.03
AGACTGTTGT	1.02
AGAGAAACAC	0.997
AGAGACGTTT	0.968
AGAGAGAGGG	1.02
AGAGAGCCGA	1.02
AGAGATAAGC	1.02
AGAGATAGTA	1.06
AGAGATGGAG	1.04
AGAGCAAGTC	1.24
AGAGCAGCTA	1.01
AGAGCCATTC	0.977
AGAGCCTAG	0.978
AGAGGAGATG	1.01
